Reference: the supplement of paper PMC3334620
Whole data set: some 33,000 sequences, median “E-score (-0.5 to 0.5)” near -0.016, cut for the highest 2% near 0.31. The list shows a part of the results.

target: Cst6 (UniProt P40535); assay: PBM E-score (8-mer binding enrichment) (E-score (-0.5 to 0.5)); higher = stronger / more preferred TF binding; most listed sequences are background and not binding sites; details: protein concentration: 200 nM; construct: GST-DNA-binding domain
Method: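 Universal 'all 10-mer' protein binding microarrays (Agilent AMADID 015681) probed with GST-tagged S. cerevisiae TFs (full-length or DBD) made by in vitro transcription/translation (PURExpress), about 100-200 nM. Bound TF was detected with fluorescent anti-GST. Each ungapped 8-mer (which stands for itself and its reverse complement) is scored by the PBM enrichment score (E-score), a modified Wilcoxon-Mann-Whitney statistic from -0.5 to +0.5, computed with the Universal PBM Analysis Suite. Scale: above 0.35 generally sequence-specific binding.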

Sequence	PBM E-score
CACGTCCG	-0.146
GGGGTTAA	-0.213
CGGACGGA	-0.157
ACCAATCC	-0.0861
AAACTGGT	0.00264
CCTTGAAC	-0.128
GACACTGA	0.0443
GAGTGTAC	-0.164
GTAGCACA	-0.0684
CTCAAATA	0.105
GGTAAGAC	-0.069
ACAAGGCC	-0.3
AGCTGGAT	-0.0868
CTTATACA	0.0243
CTGATTTA	0.0774
ATAATCGG	0.229
ATACCATC	0.00666
CCTTGTTA	0.113
ATCTGATG	-0.0889
GCGGAAAC	-0.179
AGTCGTTA	0.0351
ACGGTGTA	0.0103
CGTCCCCC	-0.393
GCGCACAA	0.098
AAGAATAT	-0.0598

Sequence	PBM E-score
CTAGTTGC	-0.0674
ACAGTGCG	-0.0367
GAGCGATA	-0.0987
ACTCCTCG	-0.0384
CGCAGATA	-0.135
ATCTCGAC	-0.056
GAATGGCA	0.104
CAGGAGGA	-0.308
GACTACAA	0.044
ACGAGCGA	0.0785
AGGCAGTA	-0.203
TAACGAAA	0.27
GAACATAC	0.109
ACAAAAAC	0.104
GGCAACAC	0.0798
TCCGTACA	0.0513
GTATCTAA	0.121
CGTCTCTC	-0.0567
ACCGGTTG	-0.112
ACTCTTCA	0.0193
CACTAATG	0.0806
ACCAGTCT	-0.143
GTGACGCA	0.471
AAGTATAC	0.114
ACGTCTGG	0.102

Sequence	PBM E-score
ACTCCCCC	-0.299
ACTTGAAC	-0.0383
ATCTTAGA	0.155
ATTATGTA	0.355
GTCGAATA	-0.0161
CATAATGG	-0.0715
AGACGGAG	-0.0968
ATACGCTA	-0.151
GATATGAA	0.141
CACAGCGA	0.107
CCGTTACC	-0.143
GTGCGCCA	-0.117
GTAAAAAA	0.186
TGGCTAAA	0.0343
ATTCCTAA	0.111
CTCTGCAA	-0.0726
TGTCATAA	0.323
GCGACTCC	-0.383
GATCAAAA	0.094
AAACGAAG	0.0747
CGACGTTC	-0.229
AGCAATGC	0.00876
AGATGGGA	-0.125
AGTCGATA	-0.0231
AGACAGAT	0.0887

Sequence	PBM E-score
ATAAGGCC	-0.16
AACTCTTG	-0.0742
AGTCTGGG	-0.29
AACACGGC	0.218
CAACGACA	0.189
CCTTAGTA	-0.0791
AACTCCGC	-0.221
CAGACCTA	-0.00947
CGCAAGGC	0.213
ATCCTACA	-0.125
CGGAGCAC	-0.194
ATCATGCG	0.147
ACGGGGAG	-0.22
CGTAACAG	0.292
ATTCAAAG	0.0878
CGCGGGTC	0.0698
GATAAATA	0.153
GGCTAAAC	0.00854
TGGTTGAA	-0.178
CACCGAAG	0.0337
ATGATCCC	-0.0397
AACGTCAC	0.488
GGGCGCAA	-0.0785
GGATTATA	-0.0365
AGTTCGAG	0.0173

Sequence	PBM E-score
AAATTCAC	0.163
CACCGCCA	-0.0471
GCGTCGCC	-0.0304
CAATTGCC	-0.0268
ATGCCCAC	-0.0872
CGGTTCTA	-0.0455
CTCCAACC	-0.047
TAGAGAGA	0.06
CCCCAGGG	-0.435
ACAAATCA	0.169
AGAGATGG	0.075
GTGATAAC	0.165
GGATCACA	0.0122
GACGAATC	0.165
AGTAACAG	0.0458
AGATACCC	-0.0749
CGCTCATA	0.0501
AAGCCCGG	-0.209
GAACGATA	-0.0244
ACATGAGC	0.0157
CAGACCCC	-0.316
ACCTCTGG	-0.164
AAACCCTA	-0.141
CTCGAAAA	0.0887
CAAAAACG	0.121

Sequence	PBM E-score
CGGGGGCA	-0.273
CAACCAAG	0.0364
AAATAGGG	-0.198
GGCACTTA	-0.00485
CAGTTAGG	-0.0638
AGTCTTAG	-0.218
CACAGCTG	-0.131
CTCACGGC	0.105
ATTGTACC	0.052
GGTACCGA	-0.345
TACGCCGA	-0.0328
ACGCAGGG	0.0221
AAGCGGGG	-0.179
CGTTTAAG	0.0111
AGCTCAGC	-0.203
AACCATCG	0.163
AAATTTAC	0.222
GAAAAACC	0.0383
CTCGGTGC	-0.142
CGCACTGC	0.00772
AAATGTGT	0.216
AGACGTCT	-0.207
AGCGAATA	0.126
CTGATGTA	0.326
TCAATGCA	0.102

Sequence	PBM E-score
AACTGTAC	-0.0682
GTGAATCA	0.0592
CCGGCCCC	-0.374
GTTATACA	0.0889
ACCTTGAG	0.0478
GGGTAAAC	-0.0631
GAACAGTA	0.121
ACCAGGGT	-0.319
CAGAATGG	-0.0138
AGTCTCGG	-0.273
ATGGCATA	0.211
AGCCCATG	-0.0782
CTTATATC	0.291
AGGATAGA	0.0193
AGATCCCC	-0.237
CCTAATCA	0.172
CTCTTAAA	0.112
ATTACTTC	0.133
CCTTTGGA	-0.228
CACTCACC	0.0044
AAGGCTCT	-0.0115
AGTCCCCC	-0.43
AGAAGAAT	-0.0262
ATGTCCCC	-0.168
AGAGAAAT	0.128

Sequence	PBM E-score
AAACGTGG	-0.122
GAGGTGCA	0.0333
AAAGCGCC	0.113
CGTTCCTA	-0.00988
AAATGAAT	0.0873
AGATAATA	0.203
ACTGGATC	-0.0585
ATACTGCA	0.0679
CGCCACTC	0.0123
CAGATCAG	0.0267
CGACTATA	0.0833
CTATCCAC	-0.0799
AGCCCTAA	-0.0389
ACACACGA	0.0814
GCTCAAGA	-0.169
CTGTATTC	0.0607
GGTGTGTA	-0.152
CCGAATCC	-0.153
CCGATGAG	-0.087
CCATTGCC	0.0353
CGCTCGCC	-0.0525
CTCCGCGA	-0.236
AGTCTCCA	-0.193
CTCTTGCA	-0.139
TAATGGCA	0.179

Sequence	PBM E-score
ATCTCACC	0.0941
ACCTTGAC	-0.016
ACATCCTC	-0.143
ACCATGAT	0.146
CTAGTCAA	-0.127
CGGCCAAG	-0.157
GGGTAGAC	-0.299
TTGGCAAA	0.242
TAACCTTA	-0.0914
AATATACA	0.207
CGTGTTCA	0.0994
GGTGGTGA	0.0974
ATTTAAAC	0.255
AGTCACTG	0.0602
CTCCTTAA	-0.106
GGCTGGAC	-0.329
ACGAACTC	0.113
ATATGTCG	0.185
CAGGACGG	-0.0963
ACAGTGCT	-0.0311
ATCTCAAT	0.176
ACGCTAAT	-0.104
GGTTACTA	-0.0892
AACACATC	0.0529
ATCCGACG	0.0804

Sequence	PBM E-score
AGAGCGCT	-0.00983
AACTGACG	0.277
CCGTTCGC	-0.0956
AGTTGAAG	-0.0917
CCGCAGCC	-0.189
CACATAAC	0.0869
ACACCCTA	-0.0333
AAGCAACC	0.122
ATCGGAAT	0.0663
CCTCTGGA	-0.106
ACATAAGG	0.158
GCCTGTCA	0.00817
GGACGGTA	-0.188
AGGACGAT	0.0316
AGGAACCG	-0.0834
CACGCGAC	-0.147
CGCGCATA	-0.0399
CCCTTGTC	-0.105
GGAGATAA	0.0846
ATAGTGCC	-0.0667
CCGCACGC	0.0892
ACCTTACA	-0.0143
TAAGGCTA	-0.0663
AAGAGATT	0.123
GCGACGAA	0.0164

Sequence	PBM E-score
ACGTAAAA	0.354
CCTTTAAA	-0.0112
AAGCAATG	-0.0626
CGGCGTAA	0.199
CTCATACA	0.116
AATTCCAA	0.18
CTTCCAGA	-0.113
AAACAGAA	0.206
CCTCACTA	0.0149
ATCGGCCC	-0.0912
TATTAGGA	0.0232
CCTTTTGC	-0.0758
ACTTTAAG	0.122
ACGCCTGC	-0.25
GCATCCGC	-0.126
AGGATCCC	-0.102
GCTCCTAA	-0.305
ACACGCAG	-0.136
GGGATAAA	0.237
GGTCAAAC	0.0398
CCCTCGCA	-0.169
GCAACTGA	0.104
GTCGGAAC	-0.15
GCTCAGAA	0.0451
AGATACAG	0.0824

Sequence	PBM E-score
GATCTCGA	-0.0832
ACTGGCAG	-0.27
AGGCCTTC	-0.166
CGACCTTC	-0.169
ACCTGAGT	-0.176
GACATGCA	-0.0362
ATGGGTCG	-0.14
GTCGCATA	0.124
CGACAGCA	-0.0574
GCATGTGA	0.0636
ATCCCCTG	-0.23
ACTGCTTG	-0.234
ACTACAGA	0.133
TGATATAA	0.323
GAGGGAGC	-0.321
CCGGCGAG	-0.129
AGGTTTAA	0.0666
CGTCAGTA	0.275
AAAACGAG	-0.0668
ACAGTAGG	-0.0485
AGCGCACG	-0.148
ATTCAGTG	0.129
AGACTATC	-0.0567
TAGGGAGA	-0.16
AGGCGTGC	-0.0426

Sequence	PBM E-score
ATTAGTTA	0.214
CAGCCGAC	-0.28
TCCTTAGA	-0.0955
CACGTCCA	-0.112
AGACCTGA	-0.237
ATCGCGCA	-0.00583
GAACACAA	-0.0199
GTCATCAC	0.409
GCCTCTCC	-0.297
AATATTAG	0.185
ATGCTGAA	0.00037
AAGCCATC	-0.0363
ACCGTATC	0.0487
CATATAAG	0.146
CGATTACC	-0.107
AGGCTAAG	-0.0862
AGACAAAT	0.159
CTTCGCTA	-0.0133
TCAGAGAA	0.00205
AGTTCGAA	0.111
CTTCGGTA	-0.107
GCCTCTTA	0.0636
GTAACAAA	0.276
CACTGACC	-0.133
CTCTCAAC	-0.143

Sequence	PBM E-score
AGAGGATG	-0.114
AACACAGG	-0.248
ACCTCACG	0.0763
GGTATCGA	-0.0444
CTAATGCC	0.0141
CGTGAACC	-0.269
TGCCCGAA	-0.0936
GAGAAGCC	-0.233
ACGCCTTA	0.0533
GTATCCGA	-0.0626
CCACGGAA	0.00454
GAAGTCGC	-0.123
GAGCTACC	-0.0923
GCTGTGCC	-0.0933
CCAATAAG	0.0598
ACTTCCAT	0.0149
GGGTCCTA	-0.316
CATTGACC	0.149
CGACAACA	0.243
